Test results published in ChEMBL document CHEMBL1201862, “PubChem BioAssay data set” (2004).
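Protocol summary: plate cells (96-well), add compound at 5 concentrations, incubate 48 h, interpolate endpoints linearly. The concentration for 50% growth inhibition is given as GI50.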 Activity calls are given as the source filed them. No stated cut-off is given here; in the data, active = GI50 up to about 1.1 µM and inactive = higher. Square brackets hold non-standard residues; d marks the D form. Peptide text beside a SMILES is read from it. ξ: configuration not given here. Pen = CC(C)(S)[C@H](N)C(=O)O; ξL = CC(C)CC(N)C(=O)O

System: NCI-H322M
Test: NCI tumour cell line growth inhibition, 48 h

Compound | GI50
CCOC(=O)C(=[N+]=[N-])C(=O)Nc1nn2nnnc2c2ccccc12 | inactive: > 100 µM
CC(=O)SC(C[N+](=O)[O-])c1ccccc1 (stereo not given) | inactive: 17.2 µM
CCN1CCC(O)(C(C(=O)O)c2ccccc2)CC1 (stereo not given) | inactive: > 100 µM
NNC(=O)C(O)C(O)C(=O)NN (stereo not given) | inactive: > 100 µM
CCOC(=O)C(C)(c1c(C)[nH]c2ccccc12)c1c(C)[nH]c2ccccc12 | inactive: 19.1 µM
[O-][S+]1c2ccc(Cl)cc2CC(SSC2Cc3cc(Cl)ccc3[S+]([O-])c3ccccc32)c2ccccc21 (stereo not given) | inactive: > 100 µM
N[C@H](C(=O)O)[C@@H]1CC(Cl)=NO1 [ACIVICIN] | inactive: 10 µM
O=C1CCCCC/C1=C\c1ccc([N+](=O)[O-])cc1 | inactive: 33 µM
CS/C(=N\C#N)NC1CC(n2cc(C)c(=O)[nH]c2=O)OC1CO (stereo not given) | inactive: > 100 µM
COc1ccc(CCCCl)c(C2=NCCc3cc(OC)c(OC)cc32)c1 | inactive: > 100 µM
CCC/N=C/c1c(O)c(O)c(C(C)C)c2cc(C)c(-c3c(C)cc4c(C(C)C)c(O)c(O)c(/C=N/CCC)c4c3O)c(O)c12 | inactive: 1.94 µM
Oc1cc(/C=C/c2ccccc2)nc2cc3c(cc12)OCO3 | inactive: 5.94 µM
CCS[C@H]1NC(=O)C1[C@H](C)O[Si](C)(C)C(C)(C)C (stereo not given in full) | inactive: > 100 µM
C(#Cc1ccccc1)SC1=C(c2ccccc2)S/C(=C(\SC#Cc2ccccc2)c2ccccc2)S1 | inactive: > 100 µM
O=C(CCc1ccccc1)On1c(-c2ccccc2)nc2ccccc2c1=S | inactive: 3.28 µM
CC(C)(C)C(=O)N1CCN(C=O)C1=S | inactive: > 100 µM
CCOC(=O)C(NC(=O)c1ccccc1)(c1ccc(S(=O)(=O)Nc2onc(C)c2C)cc1)C(F)(F)F (stereo not given) | inactive: > 100 µM
CN(C)C(=S)OC(Cn1cncn1)c1ccc(Cl)cc1Cl (stereo not given) | inactive: > 100 µM
CSc1nn(C)cc2nc(C)nc1-2 | inactive: > 100 µM
O=C(O)c1cc2sc(C(=O)O)cc2s1 | inactive: > 100 µM
CC(C#N)c1cn(S(=O)(=O)c2ccccc2)c2ccccc12 (stereo not given) | inactive: > 100 µM
CSCC[C@H](NC(=O)C(CC(C)C)NC(=O)[C@H](Cc1c[nH]cn1)NC(=O)CNC(=O)[C@@H](NC(=O)[C@@H](C)NC(=O)[C@H](Cc1c[nH]c2ccccc12)NC(=O)[C@H](CCC(N)=O)NC(=O)[C@@H](N)CC(N)=O)C(C)(C)SC)C(N)=O (stereo not given in full) (H-NQW[dA][Pen](Me)GH[ξL]M-NH2) | inactive: > 100 µM

Compound | GI50
NCCCN(CCCCN(CCCN)Cc1ccccc1)Cc1ccccc1 | inactive: 32.4 µM
CCOC(=O)c1c(N/C(S)=N/c2ccccc2)sc2c1CCOC2 | inactive: 73.6 µM
CC(=O)c1c(O)c2c([nH]c1=O)CCCC2 | inactive: 24.1 µM
CN1CC(S(=O)(=O)c2ccccc2)CC(S(=O)(=O)c2ccccc2)C1c1ccccc1 (stereo not given) | inactive: 13.7 µM
O=C1CCCc2ccc3c(c21)CC1(Cc2cc4c(cc2C1)CCCC4)C3 | inactive: 33.7 µM
COc1ccc(/C=c2\sc3n(c2=O)CCN=3)cc1 | inactive: > 100 µM
Nc1nc(Cc2ccccc2)nc(Cc2ccccc2)c1-c1ccccc1 | inactive: 32.9 µM
Nc1cccc2cc(Cl)cnc12 | inactive: > 100 µM
CSCCC(NC(=O)Cc1ccc(C(=O)c2ccccc2)cc1)C(=O)O (stereo not given) | inactive: > 100 µM
CCN(CC)CSc1nc2ccccc2[nH]1 | inactive: > 100 µM
CCO/C([O-])=C(\C(=O)c1ccccc1)[n+]1c(C)n(C)c2ccccc21 | inactive: > 100 µM
C[C@H](CC[C@@H](O)C(C)(C)O)[C@H]1CC[C@@]2(C)[C@@H]3CC=C4[C@@H](CC[C@H](OC5OC(CO)C(O)C(O)C5O)C4(C)C)[C@]3(C)C(=O)C[C@]12C (stereo not given in full) | inactive: > 100 µM
Oc1ccccc1/C=N/N1C(=S)N(c2ccccc2)C(=N\c2ccccc2)/C1=N/c1ccccc1 | inactive: 14.4 µM
C/C(=N\Nc1nnc(S)n1N)c1c(O)cc(C)oc1=O | inactive: > 100 µM
O=c1ccc2nc3ccc(O)cc3oc-2c1 | inactive: 34.4 µM
CCCCCc1cc(OC(=O)c2c(O)cc(OC)cc2CCCCC)cc(O)c1C(=O)O | inactive: 15.8 µM
CC12CC(C#N)(C#N)C(C#N)(CO1)C(=N)O2 (stereo not given) | inactive: > 100 µM
CCOC(=O)Oc1ccc(C(CNC(C)C)OC(=O)OCC)cc1OC(=O)OCC (stereo not given) | inactive: > 100 µM
O=C1N[C@@H](O)[C@@H]2ON=C(c3ccccc3)[C@H]12 | inactive: > 100 µM
CC(C(N)C(=O)NC(C(=O)O)C1OC(n2ccc(=O)[nH]c2=O)C(O)C1O)C(O)c1ccc(O)cn1 (stereo not given) | inactive: > 100 µM
CCn1c2ccc(C(=O)CCCN3CCCCC3)cc2c2cc(C(=O)CCCN3CCCCC3)ccc21 | inactive: 2.77 µM
O=C(NC/C=C/CO)c1ccccc1 | inactive: > 100 µM

Compound | GI50
CCOC(=O)N1CCc2cc(OC)c(OC)c3c2c1cc1cc(OC)c(OC)cc13 | inactive: 7.89 µM
CN(C)c1c(Cl)c(=O)oc2c1ccc1nc(-c3ccccc3)sc12 | inactive: > 100 µM
COc1cccc(OC)c1C1ON=C(c2ccccc2)N1C12CC3CC(CC(C3)C1)C2 (stereo not given) | inactive: 45 µM
COc1ccccc1OCC(COC(=O)Nc1ccccc1)OC(=O)Nc1ccccc1 (stereo not given) | inactive: > 100 µM
O=C(CCN1CCOCC1)C(=Cc1ccccc1)C(=O)CCN1CCOCC1 | inactive: 22.2 µM
N#CC(c1ccc(Cl)cc1)c1c(=O)[nH]c2ccc(N)cc2[n+]1[O-] (stereo not given) | inactive: > 100 µM
COc1ccc(C2S/C(=C\c3ccc(OC)cc3OC)C(=O)N2NC(=O)Cc2ccccc2)cc1 (stereo not given) | inactive: > 100 µM
Cc1cc(C)nc(NS(=O)(=O)c2ccc(Nc3c4ccccc4nc4c(C(=O)Nc5ccc(S(=O)(=O)N=C(N)N)cc5)ccc(Cl)c34)cc2)n1 | inactive: 23.7 µM
NS(=O)(=O)c1ccc(NC(=S)N/C=C2\C(=O)Oc3ccccc3C2=O)cc1 | inactive: 39.4 µM
Cc1ccc([Se](=C(C(=O)c2ccccc2)C(=O)c2ccccc2)c2ccc(C)cc2)cc1 | inactive: 23 µM
Oc1ccc2ccccc2c1/C=N/Cc1c(O)ccc2ccccc12 | inactive: > 100 µM
N#Cc1c(O)c(C=O)c(=O)n2c1[nH]c1ccccc12 | inactive: > 100 µM
O=c1cc(N2CCCC2)[nH]c(=O)n1-c1cccc(Cl)c1 | inactive: > 100 µM
NC(=O)/C(=N\NC(=O)c1cc2ccccc2cc1O)C1C(=O)N(c2ccccc2)N=C1N (stereo not given) | inactive: 35.8 µM
Cn1c(COC(=O)NC2CCCCC2)c(COC(=O)NC2CCCCC2)c2ccc3cc(Cl)c(Cl)cc3c21 | inactive: 40.6 µM
C=CCN(c1cc(OC)c2[nH]c(C(=O)O)c(C)c2c1[N+](=O)[O-])S(C)(=O)=O | inactive: > 100 µM
Cc1nnc2n1N=C(c1cc(F)c(Cl)cc1Cl)/C(=C/c1ccc(Cl)cc1)S2 | inactive: 13 µM
O=C1CCC2(CC1CCSc1ccccc1)OCCO2 (stereo not given) | inactive: > 100 µM
CCSc1nc(-c2cccs2)nc2ccc(I)cc12 | inactive: 27.4 µM
C[As+](C)(c1ccc(Br)c([N+](=O)[O-])c1)c1ccc(Br)c([N+](=O)[O-])c1 | inactive: > 100 µM
O=[N+]([O-])C(=C/c1cccs1)/C(=C\c1cccs1)[N+](=O)[O-] | inactive: 2.36 µM
